Experiment [1] concerns the target IRF9 in U6A cells (human (endogenous in U6A)) (UniProt Q00978). The experiment can be described thus: co-IP; immunoprecipitation of Flag-STAT2 or IRF9 from whole-cell lysates of U6A cells; IFN-β (100 IU/mL) for 4 h by the legend.
Experiment [2] concerns the target T1, GST-fusion protein of the kinase domain of IKK-ε (UniProt Q14164).
T1 sequence: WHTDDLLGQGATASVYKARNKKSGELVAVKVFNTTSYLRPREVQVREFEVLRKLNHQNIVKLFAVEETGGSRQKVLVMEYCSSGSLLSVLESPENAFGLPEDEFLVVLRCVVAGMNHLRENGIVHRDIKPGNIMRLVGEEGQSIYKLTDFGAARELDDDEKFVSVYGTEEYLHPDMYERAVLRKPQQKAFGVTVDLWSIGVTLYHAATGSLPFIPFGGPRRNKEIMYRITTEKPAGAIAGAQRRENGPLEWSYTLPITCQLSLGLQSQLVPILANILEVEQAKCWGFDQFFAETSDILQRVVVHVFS
The experiment can be described thus: pull-down; GST-fusion proteins of IKK-ε truncations with STAT2 (Fig. S3c); STAT2 DBD with IKK-ε (Fig. S3d); called direct.

Sequences of proteins named here, by UniProt entry; tags and fusion partners are left off. A change or cut given only in a name is not applied to a line headed by its entry. Residues count along the entry.
UniProt Q00978: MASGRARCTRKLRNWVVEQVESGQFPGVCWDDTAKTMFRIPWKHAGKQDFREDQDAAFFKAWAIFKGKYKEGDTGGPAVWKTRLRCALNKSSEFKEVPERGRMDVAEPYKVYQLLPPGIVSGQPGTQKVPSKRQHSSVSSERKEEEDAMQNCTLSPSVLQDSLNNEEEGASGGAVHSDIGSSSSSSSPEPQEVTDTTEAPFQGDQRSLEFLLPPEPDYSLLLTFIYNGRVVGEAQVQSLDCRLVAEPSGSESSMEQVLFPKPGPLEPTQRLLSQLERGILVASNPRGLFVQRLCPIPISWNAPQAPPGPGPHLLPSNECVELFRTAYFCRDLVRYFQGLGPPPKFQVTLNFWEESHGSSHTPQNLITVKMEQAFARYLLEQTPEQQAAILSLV
UniProt P52630: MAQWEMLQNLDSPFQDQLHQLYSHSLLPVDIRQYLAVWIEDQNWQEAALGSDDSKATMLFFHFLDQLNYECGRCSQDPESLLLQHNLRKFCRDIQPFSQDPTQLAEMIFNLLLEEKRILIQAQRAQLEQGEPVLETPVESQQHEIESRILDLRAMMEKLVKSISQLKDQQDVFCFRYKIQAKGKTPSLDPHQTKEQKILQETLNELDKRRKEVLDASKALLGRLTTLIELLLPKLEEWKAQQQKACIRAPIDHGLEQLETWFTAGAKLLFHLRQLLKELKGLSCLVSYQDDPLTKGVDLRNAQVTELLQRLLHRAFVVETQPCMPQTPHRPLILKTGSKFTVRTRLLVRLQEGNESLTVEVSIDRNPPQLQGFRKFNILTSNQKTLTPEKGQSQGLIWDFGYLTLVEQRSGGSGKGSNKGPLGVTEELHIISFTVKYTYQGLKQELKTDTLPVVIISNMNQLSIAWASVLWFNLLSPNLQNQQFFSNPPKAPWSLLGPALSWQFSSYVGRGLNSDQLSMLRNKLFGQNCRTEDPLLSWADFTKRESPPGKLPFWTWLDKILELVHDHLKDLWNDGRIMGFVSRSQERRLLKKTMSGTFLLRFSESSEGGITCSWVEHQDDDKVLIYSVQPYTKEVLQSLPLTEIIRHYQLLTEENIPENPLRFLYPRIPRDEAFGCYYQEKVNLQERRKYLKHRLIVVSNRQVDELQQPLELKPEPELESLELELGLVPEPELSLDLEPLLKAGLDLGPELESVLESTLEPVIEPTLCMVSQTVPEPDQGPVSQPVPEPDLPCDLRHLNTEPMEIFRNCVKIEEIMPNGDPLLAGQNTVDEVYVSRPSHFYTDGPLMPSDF
UniProt P17181, residues 28-557: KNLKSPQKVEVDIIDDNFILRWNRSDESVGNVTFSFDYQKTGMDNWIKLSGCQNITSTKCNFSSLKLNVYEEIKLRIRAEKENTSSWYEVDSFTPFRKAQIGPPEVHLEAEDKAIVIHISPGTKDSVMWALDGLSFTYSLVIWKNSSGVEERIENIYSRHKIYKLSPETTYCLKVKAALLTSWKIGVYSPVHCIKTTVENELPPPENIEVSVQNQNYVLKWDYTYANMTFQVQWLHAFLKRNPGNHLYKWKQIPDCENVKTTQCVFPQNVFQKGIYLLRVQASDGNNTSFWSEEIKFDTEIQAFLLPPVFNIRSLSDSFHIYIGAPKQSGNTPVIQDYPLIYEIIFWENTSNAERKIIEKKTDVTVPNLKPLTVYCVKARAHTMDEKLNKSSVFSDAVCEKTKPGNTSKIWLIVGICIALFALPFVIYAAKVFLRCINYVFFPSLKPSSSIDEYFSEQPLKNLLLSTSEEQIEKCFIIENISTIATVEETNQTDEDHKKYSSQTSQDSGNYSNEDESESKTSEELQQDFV

For experiment [3], the target named is GFP-tagged STAT2 T404A expressed in U6A cells (human) (UniProt P52630). In words: pull-down; GFP pull-down from whole-cell lysates of U6A cells treated with IFN-β (100 IU/mL) for 0, 5 or 15 min, western blot.
The target in experiment [4] is GFP-tagged STAT2 T404E expressed in U6A cells (human) (UniProt P52630). The description is as above.
Experiment [5] deals with GFP-tagged STAT2 wild type expressed in U6A cells (human) (UniProt P52630). Described as above.

Results are given in words; binding and its absence hold for the method and conditions named. In cells and extracts the contact can be indirect. Some binding calls cover weakened binding; strength is not graded here. For some of these results: Where a sequence is shown, tags or fusion partners need not be part of it.

On to “Flag-STAT2 F175A expressed in U6A cells (from UniProt P52630 1-851)”, for which the binding entry in experiment [1] was “no binding”.
For “Flag-STAT2 T404A expressed in U6A cells (from UniProt P52630 1-851)”, in experiment [1], the binding entry was “binds”.
For “Flag-STAT2 T404E expressed in U6A cells (from UniProt P52630 1-851)”, the binding entry in experiment [1] is “binds”.
With “STAT2 as used in the GST pull-down assays (Fig. S1b, c and Fig. S3c) (from UniProt P52630 1-851)”, the binding result in experiment [2] was “binds”.
On to “phosphorylated IFNAR1 in IFN-β-treated U6A cells (from UniProt P17181 28-557) (receptor)”, for which the binding result in experiment [3], in experiment [4] and in experiment [5] was “binds” each time.

The record behind these values is PMC7405385.
